Potency data for 58 compounds are collected here from PubChem BioAssay AID360 (National Center for Advancing Translational Sciences (NCATS), 2006).

In all, about 48,000 compounds went through this assay and about 550 (1.1%) were called active. Inconclusive results (about 4%) are left out. No stated cut-off is given here; in the data, active means potency below about 15 µM; inconclusive means mostly about 16 µM to 33 µM; inactive means weaker than that. The list shows a part of the results.
Potency means the concentration at half of the fitted maximal effect.

UniProt P04062, sequence (P04062 whole entry, looked up): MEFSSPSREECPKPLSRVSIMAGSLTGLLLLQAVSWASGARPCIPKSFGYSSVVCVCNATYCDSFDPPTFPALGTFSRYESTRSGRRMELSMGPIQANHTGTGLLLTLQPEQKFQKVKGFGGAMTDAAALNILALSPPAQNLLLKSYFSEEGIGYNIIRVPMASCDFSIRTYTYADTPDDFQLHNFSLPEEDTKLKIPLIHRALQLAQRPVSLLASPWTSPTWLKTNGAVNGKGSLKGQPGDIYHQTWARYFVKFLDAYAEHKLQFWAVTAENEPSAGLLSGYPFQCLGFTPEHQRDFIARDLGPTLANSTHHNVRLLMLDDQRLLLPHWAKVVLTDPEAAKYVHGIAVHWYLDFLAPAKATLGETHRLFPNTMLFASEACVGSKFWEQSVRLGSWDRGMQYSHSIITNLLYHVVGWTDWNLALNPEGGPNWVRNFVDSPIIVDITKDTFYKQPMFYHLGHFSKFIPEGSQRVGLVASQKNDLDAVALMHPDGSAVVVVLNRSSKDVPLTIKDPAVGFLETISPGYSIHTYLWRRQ

In the assay the target is Lysosomal acid glucosylceramidase (Homo sapiens) (UniProt P04062). Description: Glucocerebrosidase.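 Further: the screen sought inhibitors.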 Conditions: purified enzyme, resorufin glucoside fluorescence (screen aimed at inhibitors), 20 min. The method in brief:
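Normal human glucocerebrosidase (0.2 nM final) was assayed with resorufin β-D-glucopyranoside (30 uM final) in 50mM citric acid/KH2PO4, 10mM sodium taurocholate, 0.01% tween-20, pH 5.9. Compounds were titrated; fluorescence (Ex 548, Em 600) read after 20 min at RT.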
For `O=C(Cn1nnc2ccccc21)C1CC1`, the Potency was inactive: > 76.9 µM.
As for `Cc1ccc(S(=O)(=O)C2(C(=O)O)CCCC2)cc1C`, the Potency is inactive: > 76.9 µM.
Regarding `Cc1cc2ncn(-c3ncnc4sc(C)c(C)c34)c2cc1C`, the Potency is inactive: > 76.9 µM.
As to `O=C(O)CSc1nnc(Cn2nnc3ccccc32)n1CCc1ccccc1`, the Potency is inactive: > 76.9 µM.
For the compound `CC1=C(C(=O)N(C)C)C(c2cccc(Cl)c2)NC(=O)N1` (stereo not drawn), the Potency is inactive: > 76.9 µM.
With `Cc1nc2nc(-c3ccccc3)[nH]n2c(=O)c1Cc1ccccc1` the figure was inactive: > 76.9 µM; with `COc1cccc(Nc2nnc(SCC(=O)N3CC(C)OC(C)C3)s2)c1` (stereo not drawn), inactive: > 76.9 µM; with `O=S(=O)(NCc1ccccc1)c1ccc(S(=O)(=O)N(Cc2ccccn2)Cc2ccco2)cc1`, inactive: > 76.9 µM.
With `CCOC(=O)c1c(Nc2ccccc2N)cc(C)nc1C` the figure was inactive: > 76.9 µM; with `Cc1cnn(C(=S)NCc2ccco2)c1`, inactive: > 76.9 µM; with `O=C1Nc2cc(C(=O)N3CCN(Cc4ccccc4)CC3)ccc2SC1N1CCOCC1` (stereo not drawn), inactive: > 76.9 µM.
With `CCN(CC)c1ccc2oc(=O)c(C)nc2c1`, the Potency is inactive: > 76.9 µM.
With `Cc1nc2ccccc2c2oc(C(=O)NCc3ccccn3)cc12` the figure was inactive: > 76.9 µM; with `O=C(OCCOCCN=C1NS(=O)(=O)c2ccccc21)c1ccncc1`, inactive: > 76.9 µM; with `Cc1ccc(OCC(=O)N2CCCCCC2)c(C)c1`, inactive: > 76.9 µM.
With `Cc1ccc(Cn2ccc(NC(=O)c3cc(-c4ccccc4)on3)n2)cc1` the figure was inactive: > 76.9 µM.
In the case of `COC(=O)CSc1nnc(-c2cccnc2)n1-c1cc(OC)cc(OC)c1`, the Potency is inactive: > 76.9 µM.
Next, `Cc1ccc(-n2c(N)c(C(=O)N3CCOCC3)sc2=S)c(C)c1`: inactive: > 76.9 µM.
Next, `CCOC(=O)c1oc2cccc(OCC(O)CNC(C)C)c2c1C` (stereo not drawn): inactive: > 76.9 µM; `CC(C)Cn1c(NCCN(C)C)nc2c1c(=O)[nH]c(=O)n2C`: inactive: > 76.9 µM; `CCCSc1nc2c(c(=O)[nH]c(=O)n2C)n1CCc1ccccc1`: inactive: > 76.9 µM.
In the case of `COc1ccc(CCN2C(=O)CC(Sc3ncccc3C(=O)O)C2=O)cc1OC` (stereo not drawn), the Potency is inactive: > 76.9 µM.
Consider `CCCCOCCCn1c(-c2ccco2)nc2nc3ccccc3nc21`, for which the Potency was inactive: > 76.9 µM.
With `CCCn1c(SCc2ccc(Cl)cc2)nc2c1c(=O)[nH]c(=O)n2C` the figure was inactive: > 76.9 µM.
Next, `CSC(=NCc1cccnc1)NS(=O)(=O)c1cccs1`: inactive: > 76.9 µM; `NC(=O)NC(=O)COC(=O)c1ccccc1Oc1ccccc1`: inactive: > 76.9 µM.
With `CCOc1cc(C2C(C(=O)O)c3cc(OCC)c(OCC)cc3C(=O)N2C)ccc1O` (stereo not drawn) the figure was inactive: > 76.9 µM.
Regarding `COC(=O)c1cc(NS(=O)(=O)c2ccc(OC)c(OC)c2)ccc1Cl`, the Potency is inactive: > 76.9 µM.
Next, `O=C(CN1CCN(S(=O)(=O)c2ccc(Cl)cc2)CC1)Nc1ccc2c(c1)OCCO2`: inactive: > 76.9 µM; `O=C(c1ccc(NC(=O)C2(c3ccccc3)CCOCC2)cc1)N1CCOCC1`: inactive: > 76.9 µM.
Next, `O=C(c1ccco1)N1C(=O)c2cccc3c(S(=O)(=O)N4CCCC4)ccc1c23`: inactive: > 76.9 µM.
With `COc1ccc(Br)cc1CNC(=O)C1CCN(S(=O)(=O)N2CCCC2)CC1` the figure was inactive: > 76.9 µM.
For `CC(=O)Nc1ccc(C(=O)CSc2nnnn2C(C)C)cc1`, the Potency was inactive: > 76.9 µM.
Next, `CC1(C)Cc2ccccc2-c2nnc(SCC(=O)Nc3ccc4c(c3)OCO4)n21`: inactive: > 15.4 µM; `Cc1ccc(N(CC(=O)NCC2CCCO2)S(C)(=O)=O)cc1Cl` (stereo not drawn): inactive: > 76.9 µM; `CC(=O)N1CCN(Cc2nc3cc(NC(=O)C4CCCCC4)ccc3n2C)CC1`: inactive: > 76.9 µM.
With `O=C(Cc1cccs1)NCc1cccs1` the figure was inactive: > 76.9 µM.
As for `Fc1cc(F)c2nc(N3CCOCC3)sc2c1`, the Potency was inactive: > 76.9 µM.
Regarding `O=C(NCC1CCCO1)c1nn2cccnc2c1Cl` (stereo not drawn), the Potency was inactive: > 76.9 µM.
Next, `COc1ccccc1-n1nnnc1SCC(=O)NC1CCCC1`: inactive: > 76.9 µM.
Next, `O=C(c1cc2ccccc2oc1=O)N1CCN(C(=O)C2CCCO2)CC1` (stereo not drawn): inactive: > 76.9 µM; `COc1ccc(-c2nc(C#N)c(N3CCN(c4cccc(Cl)c4)CC3)o2)cc1OC`: inactive: > 76.9 µM; `CCOC(=O)Cn1c(CN(Cc2ccccc2)Cc2ccccc2)nc2c1c(=O)[nH]c(=O)n2C`: inactive: > 76.9 µM.
Next, `CCCn1c(SCC(=O)N2CCCc3ccccc32)nnc1-c1ccccn1`: inactive: > 76.9 µM.
For `COc1cccc(C2=CC(c3ccc(N(C)C)cc3)n3ncnc3N2)c1` (stereo not drawn), the Potency was inactive: > 76.9 µM.
With `CCOC(=O)c1ccc(N2C(=O)c3n[nH]c(C)c3C2c2ccco2)cc1` (stereo not drawn) the figure was inactive: > 76.9 µM; with `COc1ccccc1CCNC(=O)C1CCCO1` (stereo not drawn), inactive: > 76.9 µM.
With `CCN(CC)CCN1C(=O)C(O)=C(C(=O)c2cccs2)C1c1ccc(C)o1` (stereo not drawn) the figure was inactive: > 76.9 µM; with `Cn1c(=O)c(=O)n(C)c2cc(S(=O)(=O)NCCc3ccccc3)ccc21`, inactive: > 76.9 µM; with `COc1ccc(C(=O)NC(C)c2nnc(SCC(=O)Nc3nc4ccccc4s3)n2C)cc1` (stereo not drawn), inactive: > 76.9 µM.
With `COCC(=O)N(Cc1cc2ccccc2[nH]c1=O)c1ccc(OC)cc1` the figure was inactive: > 76.9 µM; with `Cc1ccc(SCCCCN2C(=O)NC(C)(C)C2=O)cc1`, inactive: > 76.9 µM; with `Nc1nc2n(n1)C(c1cccs1)CC(c1ccccc1)N2` (stereo not drawn), inactive: > 76.9 µM.
For `O=C(c1ccccc1CCc1ccccc1)N1CCOCC1`, the Potency is inactive: > 76.9 µM.
Next, `COCCOC(=O)C1=C(C)Nc2nc(C)nn2C1c1ccccc1` (stereo not drawn): inactive: > 76.9 µM; `O=C(NCc1ccccc1)NC1(C(=O)N2CCN(c3ccccc3)CC2)CCCCC1`: inactive: > 76.9 µM.
With `Cn1c(CNc2nc(-c3ccccc3)cs2)nnc1SCC(=O)N1CCc2ccccc21` the entry was “inactive”; with `Nc1c(-c2ccccc2)n[nH]c1-c1ccccc1`, inactive: > 76.9 µM.
